# The whole screen tested about 350,000 compounds, of which about 9,900 (2.8%) were called active. Inconclusive means that the source gave no clear call. Such entries were picked first, then a sample of the others. Calls follow the shape of the dose curve; as a rule, active = well fitted activation curve with a large enough effect; inconclusive = small, poorly fitted or top-dose-only effect; inactive = no such curve, though single readings can be large or run the other way. Potencies of inconclusive entries are left out as doubtful fits.
# Test: A quantitative high throughput screen for small molecules that induce DNA re-replication in MCF 10a normal breast cells. Also: nearly all actives have a fitted effect of over 50% in size. As to activity, positive = re-replication: % of control where 0% means no effect.
# Conditions: MCF 10A DNA re-replication, Hoechst nuclear intensity, 48 h; activity, positive = re-replication: at 46.1 µM (top of the series)
# Potency is read from the fitted curve at half-maximal effect; tags tell the direction and shape of the fitted curve.
SMILES,Potency,"activity, positive = re-replication"
COc1ccccc1NC(=S)Nc1ccc2cn[nH]c2c1,"inconclusive [activator, single point]",–
O=[N+]([O-])c1cc([N+](=O)[O-])c(N2CCCCCC2)cc1NCCO,–,inactive: 22.6%
CC1CCN(C(=O)CSc2nnc(CNC(=O)c3ccc(S(=O)(=O)N(C)C)cc3)o2)CC1,–,inactive: 1.66%
C=C(C)CNC(=S)NNC(=O)CCn1c2ccc(Cl)cc2c2cc(Cl)ccc21,"inconclusive [activator, single point]",–
NC1=NC(=Nc2ccc(Cl)cc2)c2ccccc21,"inconclusive [activator, single point]",–
COC(=O)C1C(O)=C(C=Nc2ccc3ccccc3c2)C(=O)CC1(C)C (centres undefined),"inconclusive [activator, partial curve, poor fit]",–
Cc1cc(C)cc(C(=O)NCC(=O)OCN2C(=O)c3ccccc3C2=O)c1,–,inactive: -5.82%
COc1ccc(/C=C2/Sc3ccc(C(=O)NCCCN4CCOCC4)cc3NC2=O)cc1OC,active: 18.4 µM,–
CCOC(=O)CCNC(=O)Nc1cc2nc(C)n(Cc3cccc(Cl)c3)c2nc1C,–,inactive: 8.04%
Cn1cc(C2N3CC4(C)CN2CC(C)(C3)C4=O)c2ccccc21 (centres undefined),"inconclusive [activator, single point]",–
O=C(CSc1ccc(Cl)cc1)Nc1nnc(-c2cccc([N+](=O)[O-])c2)s1,"inconclusive [activator, full curve, poor fit]",–
Cc1ccc(-n2nnnc2-c2cccc(C)c2)cc1,–,inactive: -1.62%
CCOC(=O)Cc1csc(NC(=O)CCN2C(=O)c3cccc([N+](=O)[O-])c3C2=O)n1,–,inactive: -3.12%
O=C(NC1CCCC1)C(c1ccc(F)cc1)N(Cc1ccccc1Cl)C(=O)CCl (centres undefined),"inconclusive [activator, single point]",–
CCN(Cc1nc2cc(Cl)ccc2c(=O)[nH]1)C(=O)c1cc2c(s1)CCCCC2,"inconclusive [activator, partial curve, poor fit]",–
CNC(=O)N(O)C1N(/N=C/c2ccc(C)cc2)C(=S)SC1(C)C (centres undefined),–,inactive: 0.923%
CCOC(=O)c1ccc(NC(=O)CCc2nc(-c3ccc(C)cc3)no2)cc1,active: 14.6 µM,–
CC(/C=C1\SC(=S)N(CCCC(=O)Nc2ccc(C(=O)O)c(O)c2)C1=O)=C\c1ccccc1,"inconclusive [activator, single point]",–
CCOc1ccc(N2C(=O)CS/C2=C(\C(Cl)=C(Cl)Cl)[N+](=O)[O-])cc1,"inconclusive [activator, single point]",–
Cc1ccsc1C(=O)NCc1ccc(Cl)cc1,"inconclusive [activator, single point]",–
Cc1cccc(C(=O)NCc2ccco2)c1,–,inactive: -17.7%
CC#Cc1cc2c(cc1O)CCC1C2CCC2(C)C(O)CCC12 (centres undefined),active: 8.2 µM,–

SMILES,Potency,"activity, positive = re-replication"
O=C(Nc1ccccc1C(F)(F)F)N1CCN(C(c2ccccc2)c2ccccc2)CC1,"inconclusive [activator, single point]",–
O=C(COc1ccc2ccccc2c1Br)NC(=S)Nc1cccc(CO)c1,"inconclusive [activator, full curve, poor fit]",–
O=C1/C(=C/c2ccccc2[N+](=O)[O-])COc2ccccc21,"inconclusive [activator, full curve, poor fit]",–
Cc1cccc(C)c1OCC(O)CN1CCCCC1 (centres undefined),"inconclusive [activator, partial curve, poor fit]",–
Nn1c(SCC(=O)NC2CCS(=O)(=O)C2)nnc1-c1ccco1 (centres undefined),–,inactive: -28.1%
COC(=O)c1nccnc1C(=O)Nc1ccccc1N1CCOCC1,–,inactive: 6.83%
Cc1nn(-c2ccccc2)c(C)c1/C=N/NC(=O)c1cc(-c2ccccc2)n[nH]1,"inconclusive [activator, full curve, poor fit]",–
Cc1cc(C)nc(SSc2nc(C)cc(C)n2)n1,"inconclusive [activator, partial curve, poor fit]",–
CCCCNc1nc(Nc2ccc(C)c(Cl)c2)c2cnn(C)c2n1,"inconclusive [activator, single point]",–
COc1cc(C(=O)N/N=C(\C)c2ccccn2)cc(OC)c1OC,"inconclusive [activator, full curve, poor fit]",–
Cc1nc(NCc2ccccn2)c2c3c(sc2n1)CCCC3,"inconclusive [activator, single point]",–
COc1ccc2nc(NC(=O)CNS(=O)(=O)c3cccs3)sc2c1,–,inactive: -1.34%
N#Cc1c(NC(=O)CCCN2C(=O)c3ccccc3C2=O)oc(-c2ccccc2)c1-c1ccccc1,"inconclusive [activator, partial curve, poor fit]",–
CCn1nc(NC(=O)C(C)C)c2cc3ccc(C)cc3nc21,"inconclusive [activator, single point]",–
CCOC(=O)c1c(NC(=O)COC(=O)CCCOc2ccc(OC)cc2)sc(C(=O)NC)c1C,–,inactive: 0.801%
O=C(CCc1nc2ccccc2s1)NCc1ccccc1F,"inconclusive [activator, full curve, poor fit]",–
COc1ccc2nc(C)cc(N/N=C/c3cccc(OC)c3O)c2c1,"inconclusive [activator, single point]",–
Nc1ccccc1C#Cc1ccc([N+](=O)[O-])cc1,"inconclusive [activator, partial curve, poor fit]",–
CCc1ccc(C(=O)N2CCC(c3nc4ccccc4s3)CC2)cc1,"inconclusive [activator, partial curve, poor fit]",–
O=C(Cn1ncc2c([nH]c3ccccc32)c1=O)NCC1CCN(Cc2ccc(F)cc2)CC1,–,inactive: -0.85%
C/C=C/C(=O)N1c2ccccc2C(C)=CC1(C)C,"inconclusive [activator, partial curve, poor fit]",–
COc1ccc(-c2sc(NC(=O)c3ccc(C)cc3)nc2-c2ccc([N+](=O)[O-])cc2)cc1,"inconclusive [activator, partial curve]",–
